Data published in the supplement of paper PMC11417369.
The list shows a part of the results.

Test system: PfAP2-HC AP2 domain (GST-tagged)
Assay: gcPBM binding intensity (ln(normalized median fluorescence intensity)); higher = stronger DNA binding
How it was run: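 Binding intensity values are the highest Masliner-normalised natural-log median intensity among replicate spots of either probe orientation. The binding step lasted 1 h in 1× PBS with 1% milk, 0.2 mg/ml BSA, 0.5% salmon testes DNA and 0.03% Triton X-100, using GST-tagged P. falciparum DNA-binding domains expressed in E. coli on an Agilent 4 × 180k array of primer-extended double-stranded 36-bp intergenic genomic probes plus negative controls. Alexa488 anti-GST antibody and a 488 nm scan detected bound protein.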

| Sequence | gcPBM binding intensity (ln) |
| --- | --- |
| TATATATTAATATATGCATGTACGATTATTATAATA [TGCATGCA_site446] | 9.56 |
| AATAAAAATCCACAAGCACACAAATGTACTTATATA [CACACA_site8783] | 9.74 |
| TAAATACAAAAATGTACACACATATAAATATTTTTA [CACACA_site7612] | 9.76 |
| TTAATTAAATATTATACACACAAAAAAATAACTTTA [CACACA_site6197] | 9.66 |
| AAAGTGTTAACCTAATCTTTAGTTTTTAAACAATAT [CACACA_negctrl_site841] | 9.53 |
| TGTATTTAAAATGGTTGTACATAAATAAAAATAAAA [XGTACX_site7771] | 9.5 |
| TATTGAAACGTATAGACACACATATGATATATATAT [CACACA_site3226] | 9.78 |
| ATTTATTTATTTATATGTACTTATATATGTATTTTC [XGTACX_site6269] | 9.99 |
| TAATTTATTATATTTTGTACGTAAAATTATTATTGT [XGTACX_site8155] | 9.6 |
| TAGGAAAAGAAAAGCACACACATAAATAAATATATA [CACACA_site504] | 10.3 |
| AATATTTATTTTACATGTACTTATTTTTCTTTTAAC [XGTACX_site3631] | 10.1 |
| AATATATATTTATATTGTACATATATATATATTTCT [XGTACX_site2603] | 9.72 |
| CATTCATTTATTAATTGTACTTTTAAGGTTAAATAA [XGTACX_site5838] | 9.25 |
| ATTATATATACACGCACACACACTTATATATATATA [CACACA_site9093] | 10.7 |
| TTTTTAACATATCATACACACAACAACTTTTTATAG [CACACA_site1962] | 9.84 |
| CAAGCCCTTCTGCTTACACACAGTAATTATTGTGTA [CACACA_site2953] | 9.9 |
| TAAAAATATATACATACATGCATACATATATATGTA [TGCATGCA_site774] | 9.52 |
| AAAAAAAAAAATATAACACACAAAAAATTGTATCGA [CACACA_site1144] | 9.69 |
| ATATAGTAAAATTATACACACATGAATTTTCCCATA [CACACA_site3113] | 9.81 |
| ACAAAATTTACAAAATGTACATATTGTAGATATTGT [XGTACX_site7618] | 9.53 |
| CCATTAAATACATACACACCCACACCCAAAAAAAAA [CACACA_site4633] | 10.8 |
| TATAAATAAAGACACACACACATATAAATAAATATA [CACACA_site7155] | 10.5 |

| Sequence | gcPBM binding intensity (ln) |
| --- | --- |
| TTTATATACTATTCAAAGTGATAAATAATATATGAA [TGCATGCA_negctrl_site352] | 9.52 |
| AAAAAAAAAAAACATACACACAATAAAATAGGGGTA [CACACA_site2399] | 10.2 |
| ATTTATTTATTAAGATGTACTTATTAAAAATAATAA [XGTACX_site7392] | 9.33 |
| ATTTATTCATTTGGGTGTACTATTTAAAAAAAACAA [XGTACX_site498] | 9.39 |
| TATTTATATTTTAACACACACATATTTATATTTATA [CACACA_site7324] | 10 |
| TATATATAATTTTATACATGCACATATTATATATAT [TGCATGCA_site1036] | 9.82 |
| TATATTTTTTAAACCACACACAATATAGAGTATAAT [CACACA_site4510] | 10.4 |
| TAAACATTTTTGCACGCACACAAAAAAAAAATAAAA [CACACA_site167] | 10.3 |
| ATTTTTTAACATATCATACACACAACCACTTTTTAT [CACACA_site1961] | 10.3 |
| ATTAAATGCAGTTCGGTGCATTAAGGTTATGATGAA [GTGCAC_site9883] | 9.5 |
| CACATACAGACATACACACACATATAGATTAATATA [CACACA_site6399] | 10.3 |
| TTAGGGTTTTATAAATGTACTTATTTATACATCCTC [XGTACX_site5769] | 9.58 |
| TATATATATATATTATGTACATATATATTAAATATG [XGTACX_site2494] | 9.58 |
| AATAAGAAATGTAAATGTACATAAAAAAAAGTATAT [XGTACX_site3573] | 9.94 |
| CACCTTATAAATACTGCACACATAAAATATATATTA [CACACA_site8908] | 9.9 |
| ACATATAAATATATTACACACACACTAAAAAAATAA [CACACA_site6209] | 10.4 |
| CTTATCAAAAAAAAAGCATGCCACAGGCAAAAGGTA [TGCATGCA_site574] | 9.71 |
| ATATATATATATATATGTACATATATACATATACAT [XGTACX_site2350] | 10.1 |
| GAATAATATATATATTGTACTTTTTATTTATATTAT [XGTACX_site3180] | 9.65 |
| AAAATATAATATAATGCACACATAAAACAAAAAAAA [CACACA_site8989] | 9.9 |
| AAAAAAAAATTAATATATAAAAGGATATATATATAT [GTGCAC_negctrl_site449] | 9.52 |
| ATATATATATTTATATGTACGAAATATAAAAAAAAA [XGTACX_site5054] | 9.63 |

| Sequence | gcPBM binding intensity (ln) |
| --- | --- |
| CTTTTTTTTTTTTTTACACACCCAAATCACATACAT [CACACA_site4051] | 9.87 |
| TGGAATAATACGCGTACACACATATATATATTAATA [CACACA_site131] | 9.87 |
| TGAACACACGAGCACACACACACATCTATATTTATA [CACACA_site6607] | 11.1 |
| AGGTATCAAAAATATGCATGCAATATTTTATGTAAT [TGCATGCA_site1055] | 9.71 |
| ATATAAAAATGTGTATGTACACACTTTATTTTTAAT [XGTACX_site5272] | 9.88 |
| ATCCTTTATTTTTTTTGTACATAAAAATAACTCGAG [XGTACX_site3885] | 9.6 |
| TTTTTCTATAAAAAATGTACATATTTTATGAAGGAA [XGTACX_site821] | 9.34 |
| AAATTACAAATACAAACACACAAATGTTTTTCATTC [CACACA_site3552] | 9.77 |
| TTAAAAAACCTTAGATGTACAGTTATATATAAAATA [XGTACX_site6688] | 9.58 |
| CATTAATAAAAAAAAAGTACAAAAAATATATATATT [XGTACX_site2091] | 9.65 |
| AAAATAAAAATATTCACACATACAAAAATTATACAA [CACACA_site5136] | 9.83 |
| ATTTTTTTACTGTAACCATATTTTTCCCTTTTATTC [CACACA_negctrl_site1143] | 9.75 |
| ATAATATATATATATAGTACATATATATAATATTCT [XGTACX_site2445] | 9.6 |
| TTTTTTTTTTTTTTTTGTACGTATCAAAAAATTTGT [XGTACX_site1023] | 9.18 |
| AAAAATAAATTTAGTTGTACTTTATTATTTTAAATA [XGTACX_site3067] | 9.4 |
| AATCAATAAATAAAAACATGCATATATATATATATA [TGCATGCA_site438] | 9.66 |
| AAAAAAAAAAAAATACGTACATACATACCTACATAT [XGTACX_site233] | 9.7 |
| TATATATATATGTGTACACAATTTATCTGTATTTAT [CACACA_site5945] | 10 |
| AAGAAAAACTTTACGTGTACCAAACATCCTGCCAAC [XGTACX_site598] | 9.91 |
| ATAGACAGCGCACAAACACACAAACACCCACCCACA [CACACA_site8043] | 10.1 |
| AGTGATACTAATTTTTGTACGCATAAAAGAATATTC [XGTACX_site6055] | 9.6 |
| TATATTGATGATGATAGTACGTATGATTAGAAAAAA [XGTACX_site8989] | 9.72 |

| Sequence | gcPBM binding intensity (ln) |
| --- | --- |
| TCATATTATAATGTGAGTACATATAATAAATAAGTT [XGTACX_site2470] | 9.73 |
| ATGTTTGTCTATAGCTGTACCTATTTATAAAACGTA [XGTACX_site7157] | 9.58 |
| TTAATATGATATATATATATATATATATATATATAT [CACACA_negctrl_site683] | 9.36 |
| GTAAAAATTTTAAATACATGCAAGCGATTAATATGA [TGCATGCA_site80] | 9.61 |
| ATATTTCTGTCAAGCACACATAATATTAAAATATGT [CACACA_site4330] | 9.78 |
| ATTTAGAAAAATAAAACACACATATAGATGTAAATA [CACACA_site7853] | 9.87 |
| AGGAGACTTAAAAAAAGTACAAAAAAAAAAAAAAGC [XGTACX_site1576] | 9.84 |
| TATACATATATAAATGCATGTTGATATTAATAGTTA [TGCATGCA_site639] | 9.64 |
| ACAGAAAAAAAACACACACACATAATATACATACAT [CACACA_site1932] | 10.5 |
| TATTTTTTTTTCTTTTTATATATAATAATCTTCATT [GTGCAC_negctrl_site80] | 9.59 |
| GTATATATGTATATATGTACATATATACATTTTGTT [XGTACX_site7320] | 9.79 |
| CGTTAAAGGGAATGTATACACACGTTTCTCTATGTT [CACACA_site1198] | 9.83 |
| TTAAATAATATTAAATGTACATATTATTATGATATA [XGTACX_site6189] | 9.53 |
| TATATATTTAACAATCGTACATATTTACAAATATAA [XGTACX_site2131] | 9.2 |
| TTATAACAACTGGAATGATTAACAATAAATATTAAA [CACACA_negctrl_site1723] | 9.46 |
| CCTGTAAATAAATATAAATACATATTTCTAATATAT [GTGCAC_negctrl_site21] | 9.56 |
| AAAAATAAAATAAAGAAGGAAAATAAAAAAATAAGG [CACACA_negctrl_site1811] | 9.77 |
| AGGAGGTCAGTTCACAGTACCCAGGAAATCTACGGA [XGTACX_site2552] | 9.47 |
| AAACATAAGAGACACACACACATATATAAATAAATA [CACACA_site7674] | 10.5 |
| AATTTCATAAATATAACTGAGAATAAATAAACAAAG [GTGCAC_negctrl_site146] | 9.59 |
| ACATATATTTAAAAATGTACTTACATATATTTTTTA [XGTACX_site6050] | 9.51 |
| GAAGTATTTATTTATGCATGCAAATATACAAAAAAA [TGCATGCA_site975] | 9.59 |
